Experimental data: US4808701A, “Cyclic peptides having appetite regulating activity” (Hoffmann-La Roche Inc., priority 1987, dated 1989)
Not every detail of the peptide structures is certain; ends, links or a residue may be inferred. Where a SMILES comes first, the peptide text is derived from it.

What was measured:
[1] = tested on: food intake of meal-trained male Sprague-Dawley (CD) rats; assay: Two-meal feeding assay; type: in vivo, rat; conditions: mean ± SEM
Description: Male Sprague-Dawley (CD) rats weighing 180-200 grams (Charles River Breeding Laboratories) were acclimated to a 12 h light/dark cycle (6 a.m. to 6 p.m.) in a room kept at 22° C. They were subsequently fasted for two days, weighed, placed in individual cages, and a four-day period of meal training was begun. During this time the rats were given ground laboratory chow (Purina Lab Chow) in jars for one hour from 9:00 a.m. until 10:00 a.m., the jars were removed from 10:00 a.m. to 12:00 p.m., and placed back in the cages from 12:00 until 1:00 p.m. Under this `1-2-1` meal feeding regime, most rats learn to eat approximately as much per day during the two hours they have access to food as rats which have food ad libitum over the entire 24-hour day. On the fourth day, the rats were weighed again, and any which lost more than five grams body weight were excluded from the test. The animals were then distributed into experimental (n=5 to 6) and control groups (n=6-12), but not matched for body weight.
Peptides of the invention were suspended either in saline, if soluble, or in 1% gum arabic, if insoluble, at concentrations of 32 to 320 μg/ml/kg body weight and were administered intraperitonerally 15 min before the first meal on day 5 of meal feeding. The rats were then given their meals as they had been during the previous four days, and the food cups were weighed both before and after each meal to determine food consumption. Food intake was expressed as a mean and standard error of the mean as a percent of control values for the various groups. The treated groups were compared to the control groups by t-test analysis.

[2] = biological target: T1, 3H-CCK-8-(SO3H) binding, bovine striatum homogenate (Bos taurus, UniProt P79266); assay: In vitro receptor binding assay, bovine striatum; conditions: 0.15 nM 3H-CCK-8-(SO3H), 30 min, 25° C.; read-out: Bovine Striatum IC50 (inhibition of specific 3H-CCK-8-(SO3H) binding)
T1 construct: tissue homogenate (striatum 0.26 mg protein in 2 ml final volume; pancreas 0.165 mg protein in 1 ml final volume); from tissue; host or cells: bovine striatum membrane homogenate
T1 sequence (P79266 1-454): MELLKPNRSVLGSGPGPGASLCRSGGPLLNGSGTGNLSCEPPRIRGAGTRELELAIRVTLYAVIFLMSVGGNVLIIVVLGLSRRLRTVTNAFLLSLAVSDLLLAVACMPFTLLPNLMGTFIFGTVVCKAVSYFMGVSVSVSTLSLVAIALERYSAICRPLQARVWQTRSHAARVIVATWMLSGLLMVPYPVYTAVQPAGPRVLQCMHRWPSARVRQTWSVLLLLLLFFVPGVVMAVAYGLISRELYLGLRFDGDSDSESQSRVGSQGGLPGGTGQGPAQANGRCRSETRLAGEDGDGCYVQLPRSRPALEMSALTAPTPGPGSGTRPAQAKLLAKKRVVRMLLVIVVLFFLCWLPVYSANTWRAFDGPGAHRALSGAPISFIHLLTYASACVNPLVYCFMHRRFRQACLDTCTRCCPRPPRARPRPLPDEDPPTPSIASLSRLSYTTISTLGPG
Description: (§1) The tissue was homogenized 2× for approx. 15 sec. at 0° C. using a Polytron homogenizer at a setting of 6. The tissue was isolated by centrifugation at 48,000×g for 10 min. at 0° C. […] Samples were incubated for 30 min. at 25° C. and the incubation terminated by pouring the mixture onto a pre-wet Whatman GF/B filter on a Sandbeck Vacuum Filtration Manifold. The incubation tubes were washed with 2×3 ml of ice-cold HEPES Buffer #2 and the wash filtered through the GF/B filter. The filter was air dried for 10 min. and then placed in a scintillation vial with 12 ml of Beckman HP/b Ready-Solv scintillation cocktail. The vials were shaken for 2-12 hours and then counted using a Beckman Model 7800 liquid scintillation spectrometer.

[3] = biological target: T2, 3H-CCK-8-(SO3H) binding, rat pancreas homogenate (Rattus norvegicus, UniProt P30551); assay: In vitro receptor binding assay, rat pancreas; conditions: 0.15 nM 3H-CCK-8-(SO3H), 30 min, 25° C.; read-out: Rat Pancreas IC50 (inhibition of specific 3H-CCK-8-(SO3H) binding)
T2 construct: tissue homogenate (striatum 0.26 mg protein in 2 ml final volume; pancreas 0.165 mg protein in 1 ml final volume); from tissue; host or cells: rat pancreas membrane homogenate
T2 sequence (P30551 1-444): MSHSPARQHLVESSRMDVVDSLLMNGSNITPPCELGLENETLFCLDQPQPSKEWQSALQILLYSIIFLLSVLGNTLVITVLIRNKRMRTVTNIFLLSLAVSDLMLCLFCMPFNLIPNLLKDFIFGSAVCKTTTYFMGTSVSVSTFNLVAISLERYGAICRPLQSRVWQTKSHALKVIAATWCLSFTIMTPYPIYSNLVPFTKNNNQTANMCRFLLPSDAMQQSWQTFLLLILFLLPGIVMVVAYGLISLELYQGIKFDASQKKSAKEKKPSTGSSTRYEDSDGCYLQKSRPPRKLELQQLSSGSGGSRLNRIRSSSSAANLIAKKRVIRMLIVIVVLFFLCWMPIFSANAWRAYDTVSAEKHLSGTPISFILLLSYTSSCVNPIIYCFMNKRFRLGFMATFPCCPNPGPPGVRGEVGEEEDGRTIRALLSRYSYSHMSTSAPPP
Description: as §1

[4] = dose 32 microgm/kg i.p. 15 min before first meal
[5] = dose 320 microgm/kg i.p. 15 min before first meal

SMILES | Food Intake 1st Meal [1, 4] | Food Intake 2nd Meal [1, 4] | Food Intake 1st Meal [1, 5] | Food Intake 2nd Meal [1, 5] | IC50 [2] [µM] | IC50 [3] [µM]
CSCC[C@@H]1NC(=O)[C@H](Cc2c[nH]c3ccccc23)NC(=O)CNC(=O)[C@@H](NC(=O)[C@H](Cc2ccc(OS(=O)(=O)O)cc2)NC(C)=O)CCCCNC(=O)C[C@@H](C(=O)N[C@@H](Cc2ccccc2)C(N)=O)NC1=O (HELM PEPTIDE1{[ac].[O=C([C@H](Cc1ccc(OS(=O)(=O)O)cc1)N[*:1])[*:2]].K.G.W.M.D.F.[am]}$PEPTIDE1,PEPTIDE1,3:R3-7:R3$$$V2.0) | 81 ± 6 % of Control | 111 ± 4 % of Control | 43 % of Control | 135 ± 5 % of Control |  | 
CCCC[C@@H]1NC(=O)[C@H](Cc2c[nH]c3ccccc23)NC(=O)CNC(=O)[C@@H](NC(=O)[C@H](Cc2ccc(OS(=O)(=O)O)cc2)NC(C)=O)CCCCNC(=O)C[C@@H](C(=O)N(C)[C@@H](Cc2ccccc2)C(N)=O)NC1=O (HELM PEPTIDE1{[ac].[O=C([C@H](Cc1ccc(OS(=O)(=O)O)cc1)N[*:1])[*:2]].K.G.W.[Nle].D.[meF].[am]}$PEPTIDE1,PEPTIDE1,3:R3-7:R3$$$V2.0) |  |  | 77 ± 10 % of Control | 132 ± 10 % of Control |  | 
CSCC[C@@H]1NC(=O)[C@H](Cc2c[nH]c3ccccc23)NC(=O)CNC(=O)[C@@H](NC(=O)[C@H](Cc2ccc(OS(=O)(=O)O)cc2)NC(C)=O)CCCNC(=O)C[C@@H](C(=O)N(C)[C@@H](Cc2ccccc2)C(N)=O)NC1=O (HELM PEPTIDE1{[ac].[O=C([C@H](Cc1ccc(OS(=O)(=O)O)cc1)N[*:1])[*:2]].[Orn].G.W.M.D.[meF].[am]}$PEPTIDE1,PEPTIDE1,3:R3-7:R3$$$V2.0) |  |  | 72 ± 10 % of Control | 141 ± 9 % of Control |  | 
CSCC[C@@H]1NC(=O)[C@H](Cc2c[nH]c3ccccc23)NC(=O)CNC(=O)[C@@H](NC(=O)[C@H](Cc2ccc(OS(=O)(=O)O)cc2)NC(C)=O)CCCCNC(=O)C[C@@H](C(=O)N(C)[C@@H](Cc2ccccc2)C(N)=O)NC1=O [Example 1] (HELM PEPTIDE1{[ac].[O=C([C@H](Cc1ccc(OS(=O)(=O)O)cc1)N[*:1])[*:2]].K.G.W.M.D.[meF].[am]}$PEPTIDE1,PEPTIDE1,3:R3-7:R3$$$V2.0) | 72 ± 10 % of Control | 133 ± 6 % of Control | 14 % of Control | 145 % of Control |  | 
CSCC[C@H](NC(=O)[C@H](Cc1c[nH]c2ccccc12)NC(=O)[C@H](CCC(=O)O)NC(=O)[C@H](CCSC)NC(=O)[C@@H](N)Cc1ccc(OS(=O)(=O)O)cc1)C(=O)N[C@H](C(=O)N(C)[C@@H](Cc1ccccc1)C(N)=O)[C@@H](C)OS(=O)(=O)O [Example 2, Tyr(SO3 H)-Met-Glu-Trp-Met-Thr(SO3 H)-N methyl Phe-NH2] (HELM PEPTIDE1{[N[C@@H](Cc1ccc(OS(=O)(=O)O)cc1)C(=O)[*:2]].M.E.W.M.[C[C@@H](OS(=O)(=O)O)[C@H](N[*:1])C(=O)[*:2]].[meF].[am]}$$$$V2.0) |  |  | 52 ± 7 % of Control | 131 ± 9 % of Control | > 1 | 5.4
CSCC[C@@H]1NC(=O)[C@H](Cc2ccc(OS(=O)(=O)O)cc2)NC(=O)CC[C@@H](C(=O)N[C@H](C(=O)N(C)[C@@H](Cc2ccccc2)C(N)=O)[C@@H](C)OS(=O)(=O)O)NC(=O)[C@H](Cc2c[nH]c3ccccc23)NC(=O)CNC1=O [Example 3] (HELM PEPTIDE1{[O=C([C@H](Cc1ccc(OS(=O)(=O)O)cc1)N[*:1])[*:2]].M.G.W.E.[C[C@@H](OS(=O)(=O)O)[C@H](N[*:1])C(=O)[*:2]].[meF].[am]}$PEPTIDE1,PEPTIDE1,1:R1-5:R3$$$V2.0) |  |  | 73 ± 10 % of Control | 114 ± 13 % of Control |  | 
